The supplement of paper PMC12217912
This is one part of the list. Sequences were assembled here from the parent chain. Values near 0.05 are background.

B1: TEV protease; numbered along this chain (parent)
chain: MGESLFKGPRDYNPISSSICHLTNESDGHTTSLYGIGFGPFIITNKHLFRRNNGTLVVQSLHGVFKVKDTTTLQQHLVDGRDMIIIRMPKDFPPFPQKLKFREPQREERICLVTTNFQTKSMSSMVSDTSCTFPSGDGIFWKHWIQTKDGQCGSPLVSTRDGFIVGIHSASNFTNTNNYFTSVPKNFMELLTNQEAQQWVSGWRLNADSVLWGGHKVFMVKPEEPFQPVKEATQL

Variants of: B1
Assay: raw area under fraction-flipped curve 0-4 h after induction (AUC4h, not background-subtracted), DNA-recorder readout of cleavage of the substrate (dimensionless); higher = more cleavage of the substrate by the protease variant
Conditions: temperature: 34 °C; time window: 0-4 h after rhamnose induction
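Further: Bxb1 expression induced with 0.2% (w/v) L-rhamnose at OD600 near 0.5, cultures sampled hourly, flipped fraction per protease–substrate barcode pair counted by paired-end Illumina sequencing.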

I145W
area with substrate ENLCFQS: 0.0712 | area with substrate ENLDFQS: 0.0638 | area with substrate ENLEFQS: 0.0516 | area with substrate ENLFFQS: 0.0525 | area with substrate ENLGFQS: 0.0682 | area with substrate ENLHFQS: 0.0393 | area with substrate ENLKFQS: 0.048 | area with substrate ENLNFQS: 0.0561 | area with substrate ENLPFQS: 0.0259 | area with substrate ENLRFQS: 0.0589 | area with substrate ENLSFQS: 0.0497 | area with substrate ENLTFQS: 0.0755 | area with substrate ENLVFQS: 0.0753

I145P
area with substrate ENLCFQS: 0.0476 | area with substrate ENLFFQS: 0.0723 | area with substrate ENLKFQS: 0.0653 | area with substrate ENLNFQS: 0.0648 | area with substrate ENLPFQS: 0.0483

Y179W
area with substrate ENLCFQS: 0.0706 | area with substrate ENLFFQS: 0.0663 | area with substrate ENLNFQS: 0.0545 | area with substrate ENLPFQS: 0.0584 | area with substrate ENLSFQS: 0.077

S169G
area with substrate ENLCFQS: 0.0543 | area with substrate ENLDFQS: 0.059 | area with substrate ENLEFQS: 0.0743 | area with substrate ENLFFQS: 0.0599 | area with substrate ENLGFQS: 0.064 | area with substrate ENLHFQS: 0.0559 | area with substrate ENLIFQS: 0.0629 | area with substrate ENLKFQS: 0.071 | area with substrate ENLMFQS: 0.0579 | area with substrate ENLNFQS: 0.0778 | area with substrate ENLPFQS: 0.0612 | area with substrate ENLQFQS: 0.0767 | area with substrate ENLRFQS: 0.0527 | area with substrate ENLSFQS: 0.0509 | area with substrate ENLVFQS: 0.0473

C131R
area with substrate ENLCFQS: 0.0602 | area with substrate ENLEFQS: 0.0759 | area with substrate ENLKFQS: 0.0684 | area with substrate ENLNFQS: 0.0416

N186K
area with substrate ENLCFQS: 0.0673 | area with substrate ENLDFQS: 0.062 | area with substrate ENLFFQS: 0.095 | area with substrate ENLHFQS: 0.057 | area with substrate ENLIFQS: 0.059 | area with substrate ENLKFQS: 0.0766 | area with substrate ENLPFQS: 0.0636 | area with substrate ENLQFQS: 0.0791 | area with substrate ENLRFQS: 0.0814 | area with substrate ENLTFQS: 0.105

N186Q
area with substrate ENLCFQS: 0.0666 | area with substrate ENLFFQS: 0.0701 | area with substrate ENLKFQS: 0.0796 | area with substrate ENLLFQS: 0.0661 | area with substrate ENLNFQS: 0.0691 | area with substrate ENLQFQS: 0.0331 | area with substrate ENLSFQS: 0.0579

I110P
area with substrate ENLCFQS: 0.0694 | area with substrate ENLDFQS: 0.0517 | area with substrate ENLFFQS: 0.0542 | area with substrate ENLHFQS: 0.0726 | area with substrate ENLIFQS: 0.0516 | area with substrate ENLKFQS: 0.0609 | area with substrate ENLNFQS: 0.0424 | area with substrate ENLRFQS: 0.056 | area with substrate ENLSFQS: 0.0592

Q75T
area with substrate ENLCFQS: 0.0577 | area with substrate ENLDFQS: 0.064 | area with substrate ENLFFQS: 0.0797 | area with substrate ENLHFQS: 0.0443 | area with substrate ENLNFQS: 0.0567 | area with substrate ENLPFQS: 0.0491 | area with substrate ENLSFQS: 0.0651 | area with substrate ENLTFQS: 0.0666 | area with substrate ENLWFQS: 0.0582

T159A
area with substrate ENLCFQS: 0.0985 | area with substrate ENLFFQS: 0.114 | area with substrate ENLHFQS: 0.0791 | area with substrate ENLMFQS: 0.0936 | area with substrate ENLNFQS: 0.0745 | area with substrate ENLSFQS: 0.0583

K100M
area with substrate ENLCFQS: 0.0719 | area with substrate ENLHFQS: 0.0691 | area with substrate ENLIFQS: 0.0895 | area with substrate ENLLFQS: 0.0814 | area with substrate ENLNFQS: 0.0645 | area with substrate ENLPFQS: 0.0036 | area with substrate ENLVFQS: 0.0775

E107F
area with substrate ENLCFQS: 0.097 | area with substrate ENLDFQS: 0.0628 | area with substrate ENLEFQS: 0.0537 | area with substrate ENLFFQS: 0.0624 | area with substrate ENLHFQS: 0.0612 | area with substrate ENLKFQS: 0.059 | area with substrate ENLPFQS: 0.0451 | area with substrate ENLWFQS: 0.06

V157I
area with substrate ENLCFQS: 0.0805 | area with substrate ENLDFQS: 0.0578 | area with substrate ENLEFQS: 0.07 | area with substrate ENLFFQS: 0.0899 | area with substrate ENLHFQS: 0.0717 | area with substrate ENLIFQS: 0.0853 | area with substrate ENLNFQS: 0.0824 | area with substrate ENLPFQS: 0.0818 | area with substrate ENLRFQS: 0.0691 | area with substrate ENLSFQS: 0.0676 | area with substrate ENLTFQS: 0.075

V157M
area with substrate ENLCFQS: 0.0537 | area with substrate ENLEFQS: 0.0778 | area with substrate ENLFFQS: 0.0729 | area with substrate ENLGFQS: 0.0732 | area with substrate ENLHFQS: 0.0527 | area with substrate ENLIFQS: 0.0752 | area with substrate ENLKFQS: 0.0734 | area with substrate ENLNFQS: 0.066 | area with substrate ENLWFQS: 0.0497

V126L
area with substrate ENLCFQS: 0.0629 | area with substrate ENLDFQS: 0.0582 | area with substrate ENLEFQS: 0.0599 | area with substrate ENLFFQS: 0.0792 | area with substrate ENLIFQS: 0.0966 | area with substrate ENLKFQS: 0.0796 | area with substrate ENLLFQS: 0.0573 | area with substrate ENLNFQS: 0.0701 | area with substrate ENLVFQS: 0.116 | area with substrate ENLWFQS: 0.073

L61Q
area with substrate ENLCFQS: 0.0947 | area with substrate ENLDFQS: 0.033 | area with substrate ENLEFQS: 0.0906 | area with substrate ENLGFQS: 0.0828 | area with substrate ENLHFQS: 0.0758 | area with substrate ENLIFQS: 0.0831 | area with substrate ENLKFQS: 0.0758 | area with substrate ENLLFQS: 0.0871 | area with substrate ENLPFQS: 0.039 | area with substrate ENLSFQS: 0.0578 | area with substrate ENLWFQS: 0.0802

W203L
area with substrate ENLCFQS: 0.0724 | area with substrate ENLFFQS: 0.0802 | area with substrate ENLLFQS: 0.0557 | area with substrate ENLNFQS: 0.0581 | area with substrate ENLRFQS: 0.0675 | area with substrate ENLSFQS: 0.0728

H215N
area with substrate ENLCFQS: 0.0486 | area with substrate ENLDFQS: 0.0668 | area with substrate ENLFFQS: 0.0632 | area with substrate ENLGFQS: 0.0739 | area with substrate ENLKFQS: 0.058 | area with substrate ENLNFQS: 0.0511 | area with substrate ENLPFQS: 0.0624 | area with substrate ENLQFQS: 0.0604 | area with substrate ENLSFQS: 0.0946

L211S
area with substrate ENLCFQS: 0.0551 | area with substrate ENLDFQS: 0.0694 | area with substrate ENLFFQS: 0.125 | area with substrate ENLPFQS: 0.0606

L211K
area with substrate ENLCFQS: 0.0408 | area with substrate ENLDFQS: 0.0619 | area with substrate ENLFFQS: 0.0939 | area with substrate ENLHFQS: 0.0791 | area with substrate ENLIFQS: 0.0771 | area with substrate ENLKFQS: 0.0639 | area with substrate ENLLFQS: 0.0719 | area with substrate ENLNFQS: 0.0737 | area with substrate ENLPFQS: 0.0651 | area with substrate ENLSFQS: 0.0502 | area with substrate ENLWFQS: 0.0636
